# In ChEMBL document CHEMBL4888484, “Replenishing the malaria drug discovery pipeline: Screening and hit evaluation of the MMV Hit Generation Library 1 (HGL1) against asexual blood stage Plasmodium falciparum ,using a nano luciferase reporter read-out” (2022):
# The whole screen tested about 150,000 compounds, of which about 540 (0.36%) showed an effect of 50% or more. The list shows a part of the results.
# Test system: Plasmodium falciparum
# Assay: Primary screen in NF54 nanoGlo assay, in single point, at 2uM, 72h; a lower Z score goes with more inhibition
# Type: functional, Erythrocyte
# Conditions: timepoint 72 hour
Structure (SMILES),% Inhibition [%],Z score
Cc1cccc2cc(-c3noc(C(C)C)n3)c(NCc3ccc(N(C)C)cc3)nc12,-13,1.94
COc1cc(C(=O)N(C)[C@H]2CCCN(CCCc3ccccc3)C2)ccc1C,-10,1.35
O=C1CCC(N2C(=O)C3CCCC3C2=O)C(=O)N1 (stereo unspecified),-12,1.48
O=C1CNC(=O)N1c1cccc(NS(=O)(=O)c2cccc(Cl)c2)c1,-4,0.53
O=c1[nH]c2cccnc2n1[C@@H]1CCN(Cc2ccc(C(F)(F)F)cc2)C1,-16,2.12
CN(Cc1nc2c(F)cccc2[nH]1)C[C@H](O)COCc1ccccc1,-3,0.46
CN1CCN(c2ncc3c(=O)n(C4CCCC4)ccc3n2)CC1,-16,1.82
O=C(Nc1ccc(Cl)c(Cl)c1)OCc1cccs1,-5,0.95
c1cc2c(cc1CNc1nc(N3CCOCC3)ns1)OCCO2,1,-0.17
CCc1ccc(Cn2nc(CC(N)=O)nc2CN2CCCN(C)CC2)cc1,-7,1.3
O=C(C[C@H]1CCOC1)NC1Cc2ccccc2C1,-14,1.4
CN1CCCC[C@H]1C(=O)N(CCCC(=O)O)Cc1ccccc1,8,-1.31
O=C(CN1CCC(O)CC1)N1CCC(c2ccccc2)=N1,-5,1.01
Nc1c(C(=O)O)noc1C(=O)c1ccccc1,-5,0.67
O=C(c1ccc(Cl)cc1Cl)N1CC(c2nc(C3CC3)no2)C1,-15,2.76
Clc1ccc(CN2CC[C@H](C3CCN(c4ncnc5[nH]ccc45)CC3)C2)cc1,-8,0.7
Cn1c(C(=O)N2CC[C@H](N)C2)ccc1-c1ccccc1Br,0,0.05
O=C(O)[C@@]1(C/C=C/c2ccccc2)CCCN(c2ncnc3c2CCC3)C1,-15,1.51
COCC(NC(=O)NCCc1ccc2[nH]ccc2c1)C1CCCO1 (stereo unspecified),-6,0.8
NC(=O)c1cccc(CN[C@H]2CCN(c3ccc(F)c(Cl)c3)C2)c1,0,0
O=C1CN(C(=O)c2cc(O)nc3ccccc23)c2ccccc2N1,-1,0.19
Cc1nc(C(C)(C)N2CCOCC2)n(-c2ccc(Cl)cc2C)n1,-6,0.73

Structure (SMILES),% Inhibition [%],Z score
O=C(Nc1cc(Cl)cc(Cl)c1)c1ccc2c3c(cccc13)CC2,5,-0.71
Cc1ccc(Cl)c(OCCN(C)C)c1C,-3,0.6
CC[C@H](NC(=O)NCCC1(C)OCCO1)c1ccc(C)cc1,-8,0.86
O=C(CC1CC2CCC1C2)N1CCN(c2cccc(C(F)(F)F)c2)CC1 (stereo unspecified),2,-0.23
CN(C)c1cc2c(cc1NC(=O)N1CCC3(CCO3)CC1)n(C)c(=O)n2C,5,-0.78
Cc1nsc(N2CCC[C@H](C)CC2)n1,4,-0.68
Cc1ccc(C(=O)NC[C@@H]2CN(C)C(=O)[C@H](c3ccccc3)N2Cc2cccnc2)s1,-4,0.54
Cc1ccccc1-n1nc(CC(C)C)nc1CC[C@H](C)N1CCN(C)CC1,2,-0.24
Cc1cccc(-n2ncc3c(N4CCN([C@@H](c5ccccc5)c5ccc(Cl)cc5)CC4)ncnc32)c1,-2,0.23
CC(NCC(C)(O)c1ccc(F)cc1)c1ccc(-n2cnnn2)cc1 (stereo unspecified),-2,0.21
O=C(Cc1ccc(Br)cc1)Nc1nnc(C2CC2)s1,0,0.03
CO[C@H]1CCN(C(=O)c2cnnn2-c2cccc(Cl)c2Cl)C1,-12,2.23
C[C@@H](CCN(C)C)NC(=O)Nc1ccc(C(F)(F)F)nn1,-5,0.61
Cc1noc(-c2cc(=O)[nH]c3ccccc23)n1,30,-4.02
C=CCOc1ccccc1CN1CC[C@H]2[C@H](CCC(=O)N2Cc2ccc(C(F)(F)F)cc2)C1,-8,1.55
Cc1cnc(C2CCC2)n1C[C@H]1CCCN(C(=O)c2cccn2C)C1,-5,0.91
CN(Cc1cc(-c2ccccc2)[nH]n1)C(=O)c1cc(C2CC2)[nH]n1,-11,2.09
CCOC1CC(Nc2nc(N)c3cnn(C)c3n2)C12CCCC2 (stereo unspecified),-9,0.8
Cc1cc(C(=O)CN(C)Cc2nccn2CC(F)(F)F)c(C)[nH]1,-4,0.57
Oc1cc(CCc2nc([C@H]3CCOC3)n[nH]2)on1,-4,0.78
Cc1ccc(C2CN(C3CCN(C)C3=O)CCO2)c(C)c1 (stereo unspecified),-3,0.42
